{
  "source": "the supplement of paper PMC9446081",
  "note": "Among all 39,000 compounds or so, about 220 (0.56%) showed activity. Some of the results follow.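 Also: static incubation at 37 °C against the wild-type strain, values averaged over two biological replicates.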",
  "data": [
    {"test_system": "Escherichia coli K-12 BW25113", "test": "relative growth (OD600 normalised to plate interquartile mean) (fraction); higher = less growth inhibition, active = 0.2 or less", "details": "50 µM; LB; incubation time: overnight (16-24 h)", "values": [
      {"smiles": "C[C@@H]1CN([C@H](C)CO)C(=O)c2cc(NC(=O)Nc3ccc(F)cc3)ccc2O[C@@H](C)CCCCO[C@H]1CN(C)S(=O)(=O)c1ccccc1", "relative growth": "inactive: 1"},
      {"smiles": "C[C@@H]1CN([C@@H](C)CO)C(=O)c2cc(NS(=O)(=O)c3ccccc3)ccc2O[C@H]1CN(C)S(=O)(=O)c1cccs1", "relative growth": "inactive: 1.02"},
      {"smiles": "CS(=O)(=O)Nc1ccc2c(c1)[C@@H]1C[C@H](CC(=O)NCc3ccc(-c4ccccc4)cc3)O[C@H](CO)[C@@H]1O2", "relative growth": "inactive: 0.969"},
      {"smiles": "C[C@H](CO)N1C[C@H](C)[C@@H](CN(C)S(=O)(=O)c2ccc(Cl)cc2)OCCCC[C@H](C)Oc2ccc(NC(=O)Nc3ccc(C(F)(F)F)cc3)cc2C1=O", "relative growth": "inactive: 1.01"},
      {"smiles": "C[C@H]1CN([C@@H](C)CO)C(=O)c2ccccc2-c2ccccc2CO[C@H]1CN(C)Cc1ccccc1C(F)(F)F", "relative growth": "inactive: 1.03"},
      {"smiles": "C[C@H](CO)N1C[C@H](C)[C@H](CN(C)S(C)(=O)=O)Oc2ccc(NC(=O)Cn3cnnn3)cc2CC1=O", "relative growth": "inactive: 0.991"},
      {"smiles": "CCNC(=O)[C@@H]1CCCN1C(=O)[C@H](CCCNC(=N)N)NC(=O)[C@H](CC(C)C)NC(=O)[C@@H](COC(C)(C)C)NC(=O)[C@H](Cc1ccc(O)cc1)NC(=O)[C@H](CO)NC(=O)[C@H](Cc1c[nH]c2ccccc12)NC(=O)[C@H](Cc1cnc[nH]1)NC(=O)[C@H]1CCC(=O)N1", "relative growth": "inactive: 1"},
      {"smiles": "Cc1noc(C)c1NC(=O)Nc1ccc2c(c1)CC(=O)N([C@H](C)CO)C[C@H](C)[C@H](CN(C)S(=O)(=O)c1cccs1)O2", "relative growth": "inactive: 1.02"},
      {"smiles": "Cc1cc(C(=O)Nc2cccc3c2O[C@@H](CN(C)Cc2ccc(Oc4ccccc4)cc2)[C@H](C)CN([C@@H](C)CO)C3=O)n(C)n1", "relative growth": "inactive: 0.98"},
      {"smiles": "Cc1ccc(C#N)c(SCC(N)=O)n1", "relative growth": "inactive: 1"},
      {"smiles": "C[C@@H]1CN([C@H](C)CO)C(=O)CCCn2nncc2CO[C@H]1CN(C)C(=O)Nc1ccc2c(c1)OCO2", "relative growth": "inactive: 0.975"},
      {"smiles": "Cc1ccc(S(=O)(=O)N(C)C[C@H]2Oc3ccc(NS(=O)(=O)c4ccc(F)cc4)cc3C(=O)N([C@@H](C)CO)C[C@H]2C)cc1", "relative growth": "inactive: 0.994"},
      {"smiles": "COc1ccc(CN(C)C[C@H]2Oc3ccc(NS(=O)(=O)c4cn(C)cn4)cc3CC(=O)N([C@@H](C)CO)C[C@@H]2C)cc1", "relative growth": "inactive: 0.964"},
      {"smiles": "CC(=O)[C@@H](OC(=O)CS(C)(=O)=O)C(=O)NCc1ccccc1", "relative growth": "inactive: 0.885"},
      {"smiles": "CCC[C@H]1CCCCCCCCCC(=O)O[C@@H]2[C@@H](O1)O[C@H](C)[C@H](O)[C@@H]2O[C@H]1O[C@@H](CO)[C@@H](O[C@@H]2O[C@@H](C)[C@H](O)[C@@H](O)[C@H]2OC(=O)[C@@H](C)CC)[C@@H](O)[C@@H]1O", "relative growth": "inactive: 0.974"},
      {"smiles": "C[C@H](CO)N1C[C@H](C)[C@@H](CN(C)S(=O)(=O)c2cn(C)cn2)Oc2ccc(NS(=O)(=O)c3cn(C)cn3)cc2C1=O", "relative growth": "inactive: 0.954"},
      {"smiles": "C[C@@H]1CCCCO[C@H](CN(C)Cc2ccc(C(F)(F)F)cc2)[C@H](C)CN([C@@H](C)CO)C(=O)c2cc(NC(=O)Cc3ccccc3)ccc2O1", "relative growth": "inactive: 1.04"},
      {"smiles": "Cn1cnc(S(=O)(=O)N2C[C@H](O)COC[C@@H]3O[C@H](CC(=O)NCc4ccc(F)cc4)CC[C@H]32)c1", "relative growth": "inactive: 0.997"},
      {"smiles": "CC(C)NC(=O)N(C)C[C@H]1Oc2ccc(NC(=O)Cc3ccccc3)cc2CC(=O)N([C@H](C)CO)C[C@@H]1C", "relative growth": "inactive: 0.99"},
      {"smiles": "N#Cc1c(N)nc(SCc2csc(-c3ccc(Cl)cc3)n2)c(C#N)c1-c1ccc(OCCO)cc1", "relative growth": "inactive: 0.996"},
      {"smiles": "O=C(NCCN1CCOCC1)c1cccs1", "relative growth": "inactive: 1.04"},
      {"smiles": "CCC(=O)N1CCN(c2ccc(-n3c(=O)ccc4cnc5ccc(-c6cnc7ccccc7c6)cc5c43)cc2C(F)(F)F)CC1", "relative growth": "inactive: 0.99"},
      {"smiles": "O=C(C1=C[C@H](c2ccc(Br)cc2)C[C@H](OCc2ccc(CO)cc2)O1)N1CCN(Cc2ccccc2)CC1", "relative growth": "inactive: 1.01"},
      {"smiles": "COc1ccc(S(=O)(=O)Nc2ccc3c(c2)C(=O)N([C@@H](C)CO)C[C@H](C)[C@H](CN(C)S(=O)(=O)c2cn(C)cn2)O3)cc1", "relative growth": "inactive: 1.01"},
      {"smiles": "CO[C@@H]1CN(C)C(=O)c2cc(NC(=O)C3CCCCC3)ccc2OC[C@@H](C)N(C(=O)Nc2ccc(C(F)(F)F)cc2)C[C@H]1C", "relative growth": "inactive: 0.976"},
      {"smiles": "CCOc1nc(N)cc(N)c1C#N", "relative growth": "inactive: 0.908"},
      {"smiles": "COc1ccc(NC(=O)N(C)C[C@@H]2Oc3ccc(NS(C)(=O)=O)cc3CC(=O)N([C@@H](C)CO)C[C@@H]2C)cc1", "relative growth": "inactive: 1.02"},
      {"smiles": "C[C@@H](O)C#Cc1ccc2c(c1)O[C@@H](CN(C)C(=O)CN(C)C)[C@@H](C)CN([C@@H](C)CO)S2(=O)=O", "relative growth": "inactive: 0.966"},
      {"smiles": "C[C@H](CO)N1C[C@H](C)[C@H](CN(C)C(=O)Nc2cccc3ccccc23)Oc2ncc(C#Cc3ccc(F)cc3)cc2C1=O", "relative growth": "inactive: 0.982"},
      {"smiles": "O=C(N[C@@H]1C=C[C@H](CC(=O)N2CCOCC2)O[C@H]1CO)c1ccccn1", "relative growth": "inactive: 1"},
      {"smiles": "COc1ccc([C@H]2CC=CC[C@H](C)Oc3ccccc3C(=O)N(C)[C@H](Cc3ccccc3)C(=O)N2)c(OC)c1", "relative growth": "inactive: 1.01"},
      {"smiles": "CO[C@H]1CN(C)C(=O)c2cc(NS(=O)(=O)c3ccccc3)ccc2OC[C@@H](C)N(C(=O)NC(C)C)C[C@H]1C", "relative growth": "inactive: 0.984"},
      {"smiles": "C[C@@H]1CCCCO[C@@H](CN(C)C(=O)c2ccccc2)[C@H](C)CN([C@@H](C)CO)C(=O)c2cc(NC(=O)Nc3ccc4c(c3)OCO4)ccc2O1", "relative growth": "inactive: 1.01"},
      {"smiles": "COC(=O)c1cc(-c2ccccc2)oc1CN", "relative growth": "inactive: 1.02"},
      {"smiles": "Cc1noc(C)c1S(=O)(=O)Nc1ccc2c(c1)C(=O)N([C@H](C)CO)C[C@@H](C)[C@H](CN(C)C(=O)NC(C)C)O2", "relative growth": "inactive: 0.962"},
      {"smiles": "C[C@H](CO)N1C[C@H](C)[C@H](CN(C)Cc2ccc(C(=O)Nc3ccccc3N)cc2)Oc2ccc(NC(=O)Cc3cn(C)c4ccccc34)cc2C1=O", "relative growth": "inactive: 0.993"},
      {"smiles": "C[C@H](CO)N1C[C@H](C)[C@H](CN(C)S(C)(=O)=O)Oc2ccc(NS(C)(=O)=O)cc2C1=O", "relative growth": "inactive: 0.986"}
    ]}
  ]
}
